# Laboratory results reported in publication PMC6664820, “Novel natural and synthetic inhibitors of solute carriers SGLT1 and SGLT2” (Pharmacology Research & Perspectives, 2019).
# Screen size: about 1,900 compounds; about 40 (2%) showed an effect of 50% or more. This is one part of the list.
# Target: human SGLT1 (hSGLT1) (human, UniProt P13866)
# Assay: primary screen, percent of control activity; higher = less effect of the substance
# Design: single well
# Details: 50 µM
# Procedure, shortened: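 Single-point screen at 50 µmol/L in CHO-hSGLT1 cells, with 160 µmol/L 1-NBD-glucose in glucose-free DMEM for 90 min at 37°C. Fluorescence from isopropanol extracts was calibrated, and CHO wild-type uptake was subtracted. Data are percent of uptake without compound.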
# human SGLT1 (hSGLT1), sequence (P13866 whole entry, looked up): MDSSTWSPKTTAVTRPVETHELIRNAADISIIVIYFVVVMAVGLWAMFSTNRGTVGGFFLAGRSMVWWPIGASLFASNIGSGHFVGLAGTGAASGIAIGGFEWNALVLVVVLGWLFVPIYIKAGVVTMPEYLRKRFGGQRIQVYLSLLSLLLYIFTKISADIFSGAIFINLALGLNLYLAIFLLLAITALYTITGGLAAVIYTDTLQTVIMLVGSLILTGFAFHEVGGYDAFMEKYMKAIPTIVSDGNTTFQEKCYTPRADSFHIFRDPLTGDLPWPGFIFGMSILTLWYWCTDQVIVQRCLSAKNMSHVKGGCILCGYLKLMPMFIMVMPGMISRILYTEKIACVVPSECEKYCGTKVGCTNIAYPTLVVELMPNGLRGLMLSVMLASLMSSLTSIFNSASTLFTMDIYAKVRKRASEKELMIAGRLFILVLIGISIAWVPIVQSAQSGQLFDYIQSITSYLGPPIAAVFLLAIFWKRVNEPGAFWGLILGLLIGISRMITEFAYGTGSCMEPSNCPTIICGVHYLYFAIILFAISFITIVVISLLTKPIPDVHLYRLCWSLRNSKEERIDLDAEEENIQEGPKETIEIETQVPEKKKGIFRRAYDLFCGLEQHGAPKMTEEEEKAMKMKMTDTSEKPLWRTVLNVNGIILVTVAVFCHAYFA
row,SMILES,NORMALIZED SGLT1 ACTIVITY (%)
1,CC(=O)OCC(COC(C)=O)OC(C)=O,98%
2,NC1(C(=O)O)CC1,130%
3,O=C(O)c1ccccc1C(=O)Nc1ccc(S(=O)(=O)Nc2nccs2)cc1,86%
4,OCC(O)Cc1ccc2c(c1)OCO2 (stereo not shown),104%
5,CC(=O)Oc1ccc(O)cc1,135%
6,CC1(C)C(=O)[C@@H]2O[C@@H]2[C@@]2(C)C1CC(=O)[C@]1(C)C2CC[C@@]2(C)[C@H](c3ccoc3)OC(=O)[C@H]3O[C@]321 (stereo partly shown),83%
7,OCCN1C[C@H](O)[C@@H](O)[C@H](O)[C@H]1CO,109%
8,COc1ccc2c(c1)[nH]c1c(C)nccc12,272%
9,O=C(CCCN1CCC(O)(c2ccc(Cl)cc2)CC1)c1ccc(F)cc1,88%
10,C[C@]12CCC3C(CC[C@H]4C[C@@H](O)CC[C@]34C)C1CCC2=O (stereo partly shown),104%
11,CCn1cc(C(=O)O)c(=O)c2cc(F)c(N3CCNCC3)nc21,145%
12,O=C1c2c(O)cccc2Cc2cccc(O)c21,134%
13,CC(C(=O)O)c1ccc(C(=O)c2cccs2)cc1 (stereo not shown),228%
14,CCOC(=O)NNc1nncc2ccccc12.Cl,154%
15,Cn1c(=O)[nH]c2ncn(C)c2c1=O,164%
16,C=NC(C(=O)NC1C(=O)N2C1SC(C)(C)C2C(=O)[O-])c1ccccc1.[Na+] (stereo not shown),174%
17,C=CCCCCCCCCCCCC(O)CC(O)CO (stereo not shown),120%
18,COc1ccc2c(c1)OC/C(=C/c1ccc(O)c(O)c1)C2=O,249%
19,O=C(O)CCC(=O)c1ccc(-c2ccccc2)cc1,305%
20,COc1cc2cc3c4cc(OC)c(OC)cc4cc[n+]3c(C)c2cc1OC.[Cl-],101%
21,CCCCC(CC)CNC(=N)NC(=N)NCCCCCCNC(=N)NC(=N)NCC(CC)CCCC.Cl.Cl (stereo not shown),36%
22,COc1ccc(-c2cc(=O)c3c(OC(C)=O)cc(OC(C)=O)cc3o2)cc1,232%
23,CN(C)C(=O)Oc1ccc[n+](C)c1.[Br-],105%

row,SMILES,NORMALIZED SGLT1 ACTIVITY (%)
1,CC1=C(/C=C/C(C)=C/C=C/C(C)=C/C(=O)O)C(C)(C)CCC1,235%
2,C#CCCCCCCCCCCCC(O)CC(O)COC(C)=O (stereo not shown),127%
3,CN1C(=O)CCS(=O)(=O)C1c1ccc(Cl)cc1 (stereo not shown),123%
4,CC(C)NC(=N)NC(=N)Nc1ccc(Cl)cc1.Cl,130%
5,COc1cccc2c1CCC1=CC(=O)CC[C@@]12C,78%
6,CC(=O)[C@H]1CCC2C3CCC4=CC(=O)CC[C@]4(C)C3CC[C@@]21C (stereo partly shown),38%
7,CC(C)=CCc1c2c(c3occ(-c4ccc(O)c(O)c4)c(=O)c3c1O)C=CC(C)(C)O2,134%
8,CNC(Cc1c[nH]c2ccccc12)C(=O)O (stereo not shown),110%
9,COc1ccc(OC)c(C(O)CNC(=O)CN)c1.Cl (stereo not shown),104%
10,C=C1C2CC[C@@]3(C)[C@H](c4ccoc4)OC(=O)C[C@]13O[C@H]1CC(=O)C(C)(C)C(CC(=O)OC)[C@@]21C (stereo partly shown),71%
11,Nc1ccc(S(=O)(=O)[N-]c2cnc3ccccc3n2)cc1.[Na+],119%
12,Cc1ccc(/C(=C\CN2CCCC2)c2ccccn2)cc1.Cl,72%
13,CC(=O)OCC(CCn1cnc2cnc(N)nc21)COC(C)=O,150%
14,CCOC(=O)C1=C(O)C(=O)N(Cc2ccccc2)C1,211%
15,CC(=O)Nc1cccc(O)c1,91%
16,CC1=CC(=O)C2=C(C)C[C@H](O)[C@@H]3[C@H](OC(=O)[C@H]3C)[C@H]12,171%
17,C=C(C)[C@H]1COc2cc3oc(=O)ccc3cc2O1,165%
18,CN[C@@H]1[C@H](O)[C@H](NC)[C@H]2O[C@@]3(O)C(=O)C[C@@H](C)O[C@H]3O[C@@H]2[C@H]1O.Cl.Cl,111%
19,CC(=O)OC(C)C[N+](C)(C)C.[Cl-] (stereo not shown),107%
20,COc1ccc(C(=O)c2ccccc2O)c(O)c1,111%
21,Cc1ccc2cc3c(ccc4ccccc43)c3c2c1CC3,107%
22,CC[C@H]1OC(=O)[C@H](C)[C@@H](O[C@H]2C[C@@](C)(OC)[C@@H](O)[C@H](C)O2)[C@H](C)[C@@H](O[C@@H]2O[C@H](C)C[C@H](N(C)C)[C@H]2O)[C@](C)(OC)C[C@@H](C)C(=O)[C@H](C)[C@@H](O)[C@]1(C)O,103%
23,COc1cc(CNC(=O)CCCC/C=C/C(C)C)ccc1O,210%
